{
  "source": "the antibiotic and cytotoxicity screens of Wong et al. (2023)",
  "key": {"[1]": {"tested_on": "HSkMC (human skeletal muscle cells)", "test": "cytotoxicity call (relative viability < 0.9)", "details": "10 µM"}, "[2]": {"tested_on": "HepG2", "test": "cytotoxicity call (relative viability < 0.9)", "details": "10 µM"}, "[3]": {"tested_on": "S. aureus RN4220", "test": "growth inhibition call (relative growth <= 0.2)", "details": "50 µM"}},
  "note": "The other results are listed elsewhere or left out.",
  "data": [
    {"molecule": "C[C@@H]1CN([C@H](C)CO)C(=O)c2cccc(NS(=O)(=O)c3cccs3)c2O[C@H]1CN(C)Cc1ccc(-c2ccccc2)cc1", "values": [
      {"measurement": "cytotoxicity call", "setting": "[1]", "value": "inactive"},
      {"measurement": "cytotoxicity call", "setting": "[2]", "value": "inactive"},
      {"measurement": "growth inhibition call", "setting": "[3]", "value": "inactive"}
    ]},
    {"molecule": "O=C(/C=C/c1ccccc1)C1CC1", "values": [
      {"measurement": "cytotoxicity call", "setting": "[1]", "value": "inactive"},
      {"measurement": "cytotoxicity call", "setting": "[2]", "value": "inactive"},
      {"measurement": "growth inhibition call", "setting": "[3]", "value": "inactive"}
    ]},
    {"molecule": "COc1ccc(CNC(=O)c2cc3c(c(-c4cccc(-c5cccc(C#N)c5)c4)n2)[C@H](CCO)N([S@@](=O)C(C)(C)C)C3)cc1", "values": [
      {"measurement": "cytotoxicity call", "setting": "[1]", "value": "inactive"},
      {"measurement": "cytotoxicity call", "setting": "[2]", "value": "inactive"},
      {"measurement": "growth inhibition call", "setting": "[3]", "value": "inactive"}
    ]},
    {"molecule": "CN(C)CCOC(c1ccccc1)c1ccccc1.Cn1c(=O)c2[nH]c(Cl)nc2n(C)c1=O", "values": [
      {"measurement": "cytotoxicity call", "setting": "[1]", "value": "inactive"},
      {"measurement": "cytotoxicity call", "setting": "[2]", "value": "inactive"},
      {"measurement": "growth inhibition call", "setting": "[3]", "value": "inactive"}
    ]},
    {"molecule": "CCC(=O)Nc1nc(C(=O)NC)cs1", "values": [
      {"measurement": "cytotoxicity call", "setting": "[1]", "value": "inactive"},
      {"measurement": "cytotoxicity call", "setting": "[2]", "value": "inactive"},
      {"measurement": "growth inhibition call", "setting": "[3]", "value": "inactive"}
    ]},
    {"molecule": "C[C@@H]1CN([C@H](C)CO)C(=O)c2cc(NS(=O)(=O)c3ccc(Cl)cc3)ccc2O[C@@H](C)CCCCO[C@@H]1CN(C)Cc1ccc2c(c1)OCO2", "values": [
      {"measurement": "cytotoxicity call", "setting": "[1]", "value": "inactive"},
      {"measurement": "cytotoxicity call", "setting": "[2]", "value": "inactive"},
      {"measurement": "growth inhibition call", "setting": "[3]", "value": "inactive"}
    ]},
    {"molecule": "O=C(Oc1ccc(Cl)cc1)c1sc2ccccc2c1Cl", "values": [
      {"measurement": "cytotoxicity call", "setting": "[1]", "value": "inactive"},
      {"measurement": "cytotoxicity call", "setting": "[2]", "value": "inactive"},
      {"measurement": "growth inhibition call", "setting": "[3]", "value": "inactive"}
    ]},
    {"molecule": "Cn1cnc(CCNC(=O)C[C@@H]2CC[C@H]3[C@@H](COC[C@H](O)CN3C(=O)Nc3ccc(Cl)cc3)O2)c1", "values": [
      {"measurement": "cytotoxicity call", "setting": "[1]", "value": "inactive"},
      {"measurement": "cytotoxicity call", "setting": "[2]", "value": "inactive"},
      {"measurement": "growth inhibition call", "setting": "[3]", "value": "inactive"}
    ]},
    {"molecule": "COc1ccc(S(=O)(=O)N(C)C[C@H]2Oc3ccc(NC(=O)CCCN(C)C)cc3C(=O)N([C@@H](C)CO)C[C@H]2C)cc1", "values": [
      {"measurement": "cytotoxicity call", "setting": "[1]", "value": "inactive"},
      {"measurement": "cytotoxicity call", "setting": "[2]", "value": "inactive"},
      {"measurement": "growth inhibition call", "setting": "[3]", "value": "inactive"}
    ]},
    {"molecule": "C[C@@H]1CN([C@@H](C)CO)C(=O)c2cc(NS(C)(=O)=O)ccc2O[C@@H](C)CCCCO[C@@H]1CN(C)S(=O)(=O)c1cn(C)cn1", "values": [
      {"measurement": "cytotoxicity call", "setting": "[1]", "value": "inactive"},
      {"measurement": "cytotoxicity call", "setting": "[2]", "value": "inactive"},
      {"measurement": "growth inhibition call", "setting": "[3]", "value": "inactive"}
    ]},
    {"molecule": "CN(C)CC(=O)N[C@H]1CC[C@H](CCNS(=O)(=O)c2ccccc2)O[C@@H]1CO", "values": [
      {"measurement": "cytotoxicity call", "setting": "[1]", "value": "inactive"},
      {"measurement": "cytotoxicity call", "setting": "[2]", "value": "inactive"},
      {"measurement": "growth inhibition call", "setting": "[3]", "value": "inactive"}
    ]},
    {"molecule": "CO[C@H]1CN(C)C(=O)c2ccc(NS(C)(=O)=O)cc2OC[C@@H](C)N(C(=O)C2CCCCC2)C[C@@H]1C", "values": [
      {"measurement": "cytotoxicity call", "setting": "[1]", "value": "inactive"},
      {"measurement": "cytotoxicity call", "setting": "[2]", "value": "inactive"},
      {"measurement": "growth inhibition call", "setting": "[3]", "value": "inactive"}
    ]},
    {"molecule": "Cc1ccc(-c2ccc3c(c2)O[C@H](CN(C)C(=O)Nc2ccc(C(F)(F)F)cc2)[C@H](C)CN([C@@H](C)CO)S3(=O)=O)cc1", "values": [
      {"measurement": "cytotoxicity call", "setting": "[1]", "value": "inactive"},
      {"measurement": "cytotoxicity call", "setting": "[2]", "value": "inactive"},
      {"measurement": "growth inhibition call", "setting": "[3]", "value": "inactive"}
    ]},
    {"molecule": "COCC(=O)N1C[C@@H](C)[C@@H](OC)CN(C)C(=O)c2cc(NC(=O)Nc3cccc(F)c3)ccc2OC[C@H]1C", "values": [
      {"measurement": "cytotoxicity call", "setting": "[1]", "value": "inactive"},
      {"measurement": "cytotoxicity call", "setting": "[2]", "value": "inactive"},
      {"measurement": "growth inhibition call", "setting": "[3]", "value": "inactive"}
    ]},
    {"molecule": "COc1ccc(CN(C)C[C@H]2OCCCC[C@H](C)Oc3ccc(NC(=O)Nc4ccc(OC)cc4)cc3C(=O)N([C@H](C)CO)C[C@@H]2C)cc1", "values": [
      {"measurement": "cytotoxicity call", "setting": "[1]", "value": "inactive"},
      {"measurement": "cytotoxicity call", "setting": "[2]", "value": "active"},
      {"measurement": "growth inhibition call", "setting": "[3]", "value": "inactive"}
    ]},
    {"molecule": "O=C(C[C@H]1CC[C@@H]2[C@H](COC[C@@H](O)CN2C(=O)Nc2ccc(F)cc2)O1)NCCCN1CCOCC1", "values": [
      {"measurement": "cytotoxicity call", "setting": "[1]", "value": "inactive"},
      {"measurement": "cytotoxicity call", "setting": "[2]", "value": "inactive"},
      {"measurement": "growth inhibition call", "setting": "[3]", "value": "inactive"}
    ]},
    {"molecule": "C=CC[C@@H](CC(=O)N[C@H](CO)Cc1ccccc1)C(=O)N[C@@H](COC(=O)[C@@H](CC=C)NC(=O)OCC1c2ccccc2-c2ccccc21)Cc1c[nH]c2ccccc12", "values": [
      {"measurement": "cytotoxicity call", "setting": "[1]", "value": "active"},
      {"measurement": "cytotoxicity call", "setting": "[2]", "value": "inactive"},
      {"measurement": "growth inhibition call", "setting": "[3]", "value": "inactive"}
    ]},
    {"molecule": "COc1ccc(NC(=O)N(C)C[C@H]2Oc3cc(C#CCN(C)C)ccc3S(=O)(=O)N([C@H](C)CO)C[C@@H]2C)cc1", "values": [
      {"measurement": "cytotoxicity call", "setting": "[1]", "value": "inactive"},
      {"measurement": "cytotoxicity call", "setting": "[2]", "value": "inactive"},
      {"measurement": "growth inhibition call", "setting": "[3]", "value": "inactive"}
    ]},
    {"molecule": "C[C@H](O)C#Cc1ccc2c(c1)O[C@@H](CN(C)C(=O)Cc1ccccn1)[C@H](C)CN([C@H](C)CO)S2(=O)=O", "values": [
      {"measurement": "cytotoxicity call", "setting": "[1]", "value": "inactive"},
      {"measurement": "cytotoxicity call", "setting": "[2]", "value": "inactive"},
      {"measurement": "growth inhibition call", "setting": "[3]", "value": "inactive"}
    ]},
    {"molecule": "C[C@@H]1CN([C@@H](C)CO)C(=O)Cc2cc(NC(=O)Nc3ccc4c(c3)OCO4)ccc2O[C@H]1CN(C)Cc1ccc(Cl)c(Cl)c1", "values": [
      {"measurement": "cytotoxicity call", "setting": "[1]", "value": "inactive"},
      {"measurement": "cytotoxicity call", "setting": "[2]", "value": "active"},
      {"measurement": "growth inhibition call", "setting": "[3]", "value": "inactive"}
    ]},
    {"molecule": "C[C@@H]1CN([C@@H](C)CO)C(=O)c2cccc(NS(=O)(=O)c3ccc(F)cc3)c2O[C@H]1CN(C)Cc1ccc(Oc2ccccc2)cc1", "values": [
      {"measurement": "cytotoxicity call", "setting": "[1]", "value": "inactive"},
      {"measurement": "cytotoxicity call", "setting": "[2]", "value": "inactive"},
      {"measurement": "growth inhibition call", "setting": "[3]", "value": "inactive"}
    ]},
    {"molecule": "Cc1nc(=O)c(/C=N/O)c(O)[nH]1", "values": [
      {"measurement": "cytotoxicity call", "setting": "[1]", "value": "inactive"},
      {"measurement": "cytotoxicity call", "setting": "[2]", "value": "inactive"},
      {"measurement": "growth inhibition call", "setting": "[3]", "value": "inactive"}
    ]},
    {"molecule": "C[C@@H]1C[C@H](C)CN(Cc2nc3c(c(=O)n(C)c(=O)n3C)n2CC(N)=O)C1", "values": [
      {"measurement": "cytotoxicity call", "setting": "[1]", "value": "inactive"},
      {"measurement": "cytotoxicity call", "setting": "[2]", "value": "inactive"},
      {"measurement": "growth inhibition call", "setting": "[3]", "value": "inactive"}
    ]},
    {"molecule": "C[C@H]1CCCCO[C@@H](CN(C)C(=O)NC2CCCCC2)[C@@H](C)CN([C@@H](C)CO)C(=O)c2cc(NC(=O)Nc3ccc(C(F)(F)F)cc3)ccc2O1", "values": [
      {"measurement": "cytotoxicity call", "setting": "[1]", "value": "inactive"},
      {"measurement": "cytotoxicity call", "setting": "[2]", "value": "active"},
      {"measurement": "growth inhibition call", "setting": "[3]", "value": "inactive"}
    ]}
  ]
}
